Assay results published in PMC4336329 (PLoS ONE, 2015).
Screen size: about 310,000 compounds; about 2,200 (0.71%) showed an effect of 50% or more. The effect is printed as a negative number. The list shows a part of the results.

These compounds were tested against human ether-à-go-go-related gene (hERG) potassium channel (human, UniProt Q12809) (assay: primary screen, population patch clamp on CHO cells stably expressing hERG).
human ether-à-go-go-related gene (hERG) potassium channel, sequence (Q12809 whole entry, looked up): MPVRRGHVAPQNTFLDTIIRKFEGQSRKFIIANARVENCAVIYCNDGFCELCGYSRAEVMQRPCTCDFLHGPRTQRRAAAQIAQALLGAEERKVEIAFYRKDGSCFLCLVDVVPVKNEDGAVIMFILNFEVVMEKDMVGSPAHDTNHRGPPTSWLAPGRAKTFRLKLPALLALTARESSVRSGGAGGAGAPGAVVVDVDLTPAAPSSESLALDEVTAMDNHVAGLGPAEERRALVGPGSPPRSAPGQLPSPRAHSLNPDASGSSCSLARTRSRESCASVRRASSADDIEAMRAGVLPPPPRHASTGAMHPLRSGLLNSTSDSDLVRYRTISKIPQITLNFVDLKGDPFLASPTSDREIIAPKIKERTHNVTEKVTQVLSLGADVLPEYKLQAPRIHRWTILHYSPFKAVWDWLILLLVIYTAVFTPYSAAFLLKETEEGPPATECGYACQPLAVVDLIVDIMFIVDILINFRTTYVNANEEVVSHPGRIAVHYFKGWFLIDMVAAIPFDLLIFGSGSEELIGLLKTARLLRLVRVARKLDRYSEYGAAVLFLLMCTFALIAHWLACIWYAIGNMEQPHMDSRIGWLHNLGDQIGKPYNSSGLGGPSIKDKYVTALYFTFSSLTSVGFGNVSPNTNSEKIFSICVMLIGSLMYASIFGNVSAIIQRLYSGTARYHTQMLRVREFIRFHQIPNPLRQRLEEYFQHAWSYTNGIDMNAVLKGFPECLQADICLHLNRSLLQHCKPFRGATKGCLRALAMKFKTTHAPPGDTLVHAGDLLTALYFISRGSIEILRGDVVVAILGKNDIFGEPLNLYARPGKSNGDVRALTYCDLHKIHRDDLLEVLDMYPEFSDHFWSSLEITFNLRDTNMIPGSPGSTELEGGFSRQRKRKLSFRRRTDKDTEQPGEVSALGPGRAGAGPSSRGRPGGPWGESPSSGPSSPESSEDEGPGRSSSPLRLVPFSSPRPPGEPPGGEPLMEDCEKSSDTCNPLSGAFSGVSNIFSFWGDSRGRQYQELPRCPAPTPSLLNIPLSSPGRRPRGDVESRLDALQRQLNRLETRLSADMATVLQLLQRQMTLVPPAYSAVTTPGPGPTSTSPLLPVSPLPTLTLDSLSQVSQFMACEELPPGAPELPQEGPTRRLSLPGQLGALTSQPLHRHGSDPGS

| Structure (SMILES) | hERG current change (%, negative = inhibition) at 1uM |
| --- | --- |
| COc1ccc(OCCNc2cc(Cl)ccc2[N+](=O)[O-])cc1 | 13.1% |
| O=C(CN1C(=O)NC2(CCOc3ccccc32)C1=O)c1ccc(Br)cc1 (stereo not drawn) | 4.42% |
| Cc1ccc(CNC(=O)Cn2cnc(S(=O)(=O)N3CCC(C)CC3)c2)o1 | -25% |
| CC1(C)CC2CC(C)(CN2C(=O)COC(=O)c2n[nH]c(=O)c3ccccc23)C1 (stereo not drawn) | 1.45% |
| N#CC1=C(SCc2ccccc2)NC(=O)CC1c1ccccc1 (stereo not drawn) | 8.05% |
| C=CCn1c(=O)c2ccccc2n2nnc(C(=O)OCC)c12 | 14.5% |
| O=C(NCc1ccccn1)Nc1cccc([N+](=O)[O-])c1 | 12.5% |
| CCN(CC)N=Nc1ccc(S(=O)(=O)Nc2nc(C)cc(C)n2)cc1 | 15.8% |
| CC(=O)Nc1cccc(NC(=O)CSc2nnc(NC(=O)c3ccco3)s2)c1 | 6.28% |
| O=C(CSc1nnc(-c2cccnc2)n1Cc1ccccc1)N1CCOCC1 | 17% |
| Cc1c(C(=O)O)cccc1-n1c(C)cc(C=O)c1C | 7.72% |
| O=C(CCC(=O)NNC(=O)COc1ccccc1)NCc1ccccc1 | 18% |
| COc1ccc(-n2nc(C(=O)NCC(=O)N3CCCC(C)C3)c3ccccc3c2=O)cc1Cl (stereo not drawn) | 10.2% |
| COc1ccc(C(=O)COC(=O)CN2C(=O)C3C4C=CC(C5CC45)C3C2=O)cc1 (stereo not drawn) | -4.38% |
| CCOC(=O)C1=NNC2(c3ccc(C)cc3)C(=O)N(c3ccc(Cl)cc3)C(=O)C12 (stereo not drawn) | 8.28% |
| O=C(O)C1=C[C@@H](c2ccccc2)C[C@@H](OCCCCO)O1 | 17.1% |
| O=C(C[n+]1cc(-c2ccccc2)n2c1CCC2)OCc1ccccc1.[Br-] | 6.44% |
| C=CCSC1=N/C(=C\c2ccc3c(c2)OCO3)C(=O)S1 | 3.67% |
| COc1ccccc1N1CCN(S(=O)(=O)c2ccc3c4c(cccc24)C(=O)N3)CC1 | 6.87% |
| COc1ccc(NC(C)=O)cc1NC(=O)CSc1nnc(-c2cccnc2)n1C | -0.667% |
| O=C(/C=C/c1ccccc1[N+](=O)[O-])NCCc1ccc(F)cc1 | -2.5% |
| Cc1ccc(C(=O)CSc2nc3ccccc3c(=O)[nH]2)cc1 | 6.75% |
| Cc1cc(C)nc(NS(=O)(=O)c2ccc(NC(=O)c3ccc(S(=O)(=O)N(C)C)cc3)cc2)n1 | 9.2% |
| CC(O)[C@H](NC(=O)C1(c2ccccc2)CCN(C(=O)OC(C)(C)C)CC1)C(=O)O (stereo partly drawn) | 13.1% |
